The list shows a part of the results.
Tests used:
Test in all cases: glycan array binding signal (z-score within array); higher = stronger binding
Details in all cases: glycan notation: IUPAC condensed, linker removed
Gal(a1-3)Gal(b1-3)GlcNAc = molecular target: Gal(a1-3)Gal(b1-3)GlcNAc
In short: (§1)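 Glycan array data were curated from 3228 arrays in the Consortium for Functional Glycomics database and kept only where the protein sequence was available. Glycan names were converted to IUPAC-condensed notation, and columns mapping to the same glycan were averaged. The binding signal is a within-array Z-score, averaged across arrays of the same protein sequence at different concentrations or buffers and across linkers. Negative Z-scores can be read as non-binding.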

[1] = molecular target: Gal(a1-3)Gal(b1-3)GlcNAc(b1-2)Man
In short: as §1

[2] = molecular target: Gal(a1-3)Gal(b1-3)GlcNAc(b1-2)Man(a1-3)[Gal(a1-3)Gal(b1-3)GlcNAc(b1-2)Man(a1-6)]Man(b1-4)GlcNAc(b1-4)GlcNAc
In short: as §1

[3] = molecular target: Gal(a1-3)Gal(b1-3)GlcNAc(b1-3)GalNAc
In short: as §1

[4] = molecular target: Gal(a1-3)Gal(b1-3)GlcNAc(b1-6)GalNAc
In short: as §1

[5] = molecular target: Gal(a1-3)Gal(b1-3)[Fuc(a1-4)]GlcNAc(b1-2)Man(a1-3)[Gal(a1-3)Gal(b1-3)[Fuc(a1-4)]GlcNAc(b1-2)Man(a1-6)]Man(b1-4)GlcNAc(b1-4)GlcNAc
In short: as §1

Gal(a1-3)Gal(b1-4)Glc = molecular target: Gal(a1-3)Gal(b1-4)Glc
In short: as §1

Gal(a1-3)Gal(b1-4)GlcNAc = molecular target: Gal(a1-3)Gal(b1-4)GlcNAc
In short: as §1

[6] = molecular target: Gal(a1-3)Gal(b1-4)GlcNAc(b1-2)Man
In short: as §1

[7] = molecular target: Gal(a1-3)Gal(b1-4)GlcNAc(b1-2)Man(a1-3)[Gal(a1-3)Gal(b1-4)GlcNAc(b1-2)Man(a1-6)]Man(b1-4)GlcNAc(b1-4)GlcNAc
In short: as §1

[8] = molecular target: Gal(a1-3)Gal(b1-4)GlcNAc(b1-3)GalNAc
In short: as §1

[9] = molecular target: Gal(a1-3)Gal(b1-4)GlcNAc(b1-6)GalNAc
In short: as §1

[10] = molecular target: Gal(a1-3)Gal(b1-4)[Fuc(a1-3)]GlcNAc
In short: as §1

[11] = molecular target: Gal(a1-3)Gal(b1-4)[Fuc(a1-3)]GlcNAc(b1-2)Man(a1-3)[Gal(a1-3)Gal(b1-4)[Fuc(a1-3)]GlcNAc(b1-2)Man(a1-6)]Man(b1-4)GlcNAc(b1-4)GlcNAc
In short: as §1

Gal(a1-3)GalNAc = molecular target: Gal(a1-3)GalNAc
In short: as §1

[12] = molecular target: Gal(a1-3)[Gal(a1-4)]Gal(b1-4)GlcNAc
In short: as §1

[13] = molecular target: Gal(a1-4)Gal(b1-3)GlcNAc(b1-2)Man(a1-3)[Gal(a1-4)Gal(b1-3)GlcNAc(b1-2)Man(a1-6)]Man(b1-4)GlcNAc(b1-4)GlcNAc
In short: as §1

Gal(a1-4)Gal(b1-4)Glc = molecular target: Gal(a1-4)Gal(b1-4)Glc
In short: as §1

Gal(a1-4)Gal(b1-4)GlcNAc = molecular target: Gal(a1-4)Gal(b1-4)GlcNAc
In short: as §1

[14] = molecular target: Gal(a1-4)Gal(b1-4)GlcNAc(b1-2)Man(a1-3)[Gal(a1-4)Gal(b1-4)GlcNAc(b1-2)Man(a1-6)]Man(b1-4)GlcNAc(b1-4)GlcNAc
In short: as §1

[15] = molecular target: Gal(a1-4)Gal(b1-4)GlcNAc(b1-3)Gal(b1-4)Glc
In short: as §1

Gal(a1-4)GlcNAc = molecular target: Gal(a1-4)GlcNAc
In short: as §1

Gal(a1-6)Glc = molecular target: Gal(a1-6)Glc
In short: as §1

Gal(b1-2)Gal = molecular target: Gal(b1-2)Gal
In short: as §1

Gal(b1-3)Gal = molecular target: Gal(b1-3)Gal
In short: as §1

Gal(b1-3)Gal(b1-4)GlcNAc = molecular target: Gal(b1-3)Gal(b1-4)GlcNAc
In short: as §1

Gal(b1-3)GalNAc = molecular target: Gal(b1-3)GalNAc
In short: as §1

[16] = molecular target: Gal(b1-3)GalNAc(a1-3)[Fuc(a1-2)]Gal(b1-4)Glc
In short: as §1

[17] = molecular target: Gal(b1-3)GalNAc(a1-3)[Fuc(a1-2)]Gal(b1-4)GlcNAc
In short: as §1

Gal(b1-3)GalNAc(b1-3)Gal = molecular target: Gal(b1-3)GalNAc(b1-3)Gal
In short: as §1

[18] = molecular target: Gal(b1-3)GalNAc(b1-3)Gal(a1-4)Gal(b1-4)Glc
In short: as §1

[19] = molecular target: Gal(b1-3)GalNAc(b1-4)Gal(b1-4)Glc
In short: as §1

[20] = molecular target: Gal(b1-3)GalNAc(b1-4)[Neu5Ac(a2-3)]Gal(b1-4)Glc
In short: as §1

Gal(b1-3)GlcNAc = molecular target: Gal(b1-3)GlcNAc
In short: as §1

[21] = molecular target: Gal(b1-3)GlcNAc(a1-3)Gal(b1-4)GlcNAc
In short: as §1

[22] = molecular target: Gal(b1-3)GlcNAc(a1-6)Gal(b1-4)GlcNAc
In short: as §1

Gal(b1-3)GlcNAc(b1-2)Man = molecular target: Gal(b1-3)GlcNAc(b1-2)Man
In short: as §1

[23] = molecular target: Gal(b1-3)GlcNAc(b1-2)Man(a1-3)[Gal(b1-3)GlcNAc(b1-2)Man(a1-6)]Man(b1-4)GlcNAc(b1-4)GlcNAc
In short: as §1

B1: Threefoil (Haloarcula marismortui) (protein)
chain: GSSHHHHHHHHHHSSGLVPRGSHMGDGYYKLVARHSGKALDVENASTSDGANVIQYSYSGGDNQQWRLVDLGDGYYKLVARHSGKALDVENASTSDGANVIQYSYSGGDNQQWRLVDLGDGYYKLVARHSGKALDVENASTSDGANVIQYSYSGGDNQQWRLVDL
glycan array binding signal (z-score) (Gal(a1-3)Gal(b1-3)GlcNAc): -0.298
glycan array binding signal (z-score) [1]: -0.276
glycan array binding signal (z-score) [2]: -0.157
glycan array binding signal (z-score) [3]: -0.32
glycan array binding signal (z-score) [4]: -0.205
glycan array binding signal (z-score) [5]: -0.217
glycan array binding signal (z-score) (Gal(a1-3)Gal(b1-4)Glc): -0.17
glycan array binding signal (z-score) (Gal(a1-3)Gal(b1-4)GlcNAc): -0.158
glycan array binding signal (z-score) [6]: -0.182
glycan array binding signal (z-score) [7]: 0.282
glycan array binding signal (z-score) [8]: -0.279
glycan array binding signal (z-score) [9]: -0.221
glycan array binding signal (z-score) [10]: -0.292
glycan array binding signal (z-score) [11]: -0.059
glycan array binding signal (z-score) (Gal(a1-3)GalNAc): -0.135
glycan array binding signal (z-score) [12]: -0.099
glycan array binding signal (z-score) [13]: -0.07
glycan array binding signal (z-score) (Gal(a1-4)Gal(b1-4)Glc): 0.139
glycan array binding signal (z-score) (Gal(a1-4)Gal(b1-4)GlcNAc): -0.041
glycan array binding signal (z-score) [14]: -0.061
glycan array binding signal (z-score) [15]: -0.193
glycan array binding signal (z-score) (Gal(a1-4)GlcNAc): 0.051
glycan array binding signal (z-score) (Gal(a1-6)Glc): -0.125
glycan array binding signal (z-score) (Gal(b1-2)Gal): -0.244
glycan array binding signal (z-score) (Gal(b1-3)Gal): -0.141
glycan array binding signal (z-score) (Gal(b1-3)Gal(b1-4)GlcNAc): -0.177
glycan array binding signal (z-score) (Gal(b1-3)GalNAc): -0.154
glycan array binding signal (z-score) [16]: -0.066
glycan array binding signal (z-score) [17]: 0.011
glycan array binding signal (z-score) (Gal(b1-3)GalNAc(b1-3)Gal): -0.114
glycan array binding signal (z-score) [18]: -0.162
glycan array binding signal (z-score) [19]: -0.114
glycan array binding signal (z-score) [20]: -0.035
glycan array binding signal (z-score) (Gal(b1-3)GlcNAc): -0.187
glycan array binding signal (z-score) [21]: -0.195
glycan array binding signal (z-score) [22]: 0.054
glycan array binding signal (z-score) (Gal(b1-3)GlcNAc(b1-2)Man): -0.06
glycan array binding signal (z-score) [23]: -0.064
